The values that follow come from PMC4402546.

For assay [1], the target named is T1, ORRM3 (organelle RRM protein 3), mature coding sequence (Arabidopsis) (UniProt Q9FNR1).
T1 sequence: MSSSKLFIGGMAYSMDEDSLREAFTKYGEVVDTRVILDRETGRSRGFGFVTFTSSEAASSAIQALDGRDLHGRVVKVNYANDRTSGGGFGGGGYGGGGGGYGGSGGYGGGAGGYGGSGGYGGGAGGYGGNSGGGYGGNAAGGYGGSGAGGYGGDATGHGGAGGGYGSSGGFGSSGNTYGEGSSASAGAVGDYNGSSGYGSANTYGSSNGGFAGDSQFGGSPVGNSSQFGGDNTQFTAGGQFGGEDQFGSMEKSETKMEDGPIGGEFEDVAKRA
In words: two-hybrid; yeast strain PJ69-4 a and alpha, double transformants by mating; spotted at 1 x 10^6 and 1 x 10^5 cells/ml on media without leucine, tryptophan, adenine and histidine; empty vectors as control for auto-activation; read 2 d to 10 d after spotting.

The target in assay [2] is T2, ORRM2 (organelle RRM protein 2), mature coding sequence (Arabidopsis) (UniProt Q9FIU6).
T2 sequence: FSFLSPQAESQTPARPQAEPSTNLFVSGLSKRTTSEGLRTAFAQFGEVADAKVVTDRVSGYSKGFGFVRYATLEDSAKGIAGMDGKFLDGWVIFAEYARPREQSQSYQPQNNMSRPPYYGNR
Described as above.

These are yes or no findings as the source states them, for the method shown. Some results given as binding are weak or reduced against the parent protein; the word gives no strength.

B1: RIP1 (RNA-editing factor interacting protein 1) (protein, UniProt Q9LKA5 57-395)
chain: GGLVSVKGLSTQATSSSLNDPNPNWSNRPPKETILLDGCDFEHWLVVVEPPQGEPTRDEIIDSYIKTLAQIVGSEDEARMKIYSVSTRCYYAFGALVSEDLSHKLKELSNVRWVLPDSYLDVRNKDYGGEPFIDGKAVPYDPKYHEEWIRNNARANERNRRNDRPRNNDRSRNFERRRENMAGGPPPQRPPMGGPPPPPHIGGSAPPPPHMGGSAPPPPHMGQNYGPPPPNNMGGPRHPPPYGAPPQNNMGGPRPPQNYGGTPPPNYGGAPPANNMGGAPPPNYGGGPPPQYGAVPPPQYGGAPPQNNNYQQQGSGMQQPQYQNNYPPNRDGSGNPYQG
Regarding B1, the results for the binding entry in assay [1] and in assay [2] were “binds” and “no binding”, respectively.

B2: ORRM2 (organelle RRM protein 2), mature coding sequence (protein, UniProt Q9FIU6 35-156)
chain: FSFLSPQAESQTPARPQAEPSTNLFVSGLSKRTTSEGLRTAFAQFGEVADAKVVTDRVSGYSKGFGFVRYATLEDSAKGIAGMDGKFLDGWVIFAEYARPREQSQSYQPQNNMSRPPYYGNR
As for B2, the binding entry in assay [2] is recorded as “no binding”.

B3: RIP3 (protein, UniProt Q84JZ6 63-244)
chain: TSGSGYSPLNDPSPNWSNRPPKETILLDGCDYEHWLIVMEFTDPKPTEEEMINSYVKTLTSVLGCEEEAKKKIYSVCTSTYTGFGALISEELSCKVKALPGVLWVLPDSYLDVPNKDYGGDLYVEGKVIPRPQYRFTEQRHTRPRPRPRYDRRRETMQVERREPSMGLHSPVNPGEFNKPSA
In the case of B3, the binding result in assay [1] and in assay [2] was “no binding” in each case.

B4: ORRM3 (organelle RRM protein 3), mature coding sequence (protein, UniProt Q9FNR1 37-309)
chain: MSSSKLFIGGMAYSMDEDSLREAFTKYGEVVDTRVILDRETGRSRGFGFVTFTSSEAASSAIQALDGRDLHGRVVKVNYANDRTSGGGFGGGGYGGGGGGYGGSGGYGGGAGGYGGSGGYGGGAGGYGGNSGGGYGGNAAGGYGGSGAGGYGGDATGHGGAGGGYGSSGGFGSSGNTYGEGSSASAGAVGDYNGSSGYGSANTYGSSNGGFAGDSQFGGSPVGNSSQFGGDNTQFTAGGQFGGEDQFGSMEKSETKMEDGPIGGEFEDVAKRA
Turning to B4, the binding entry in assay [1] and in assay [2] was “binds” in each case.
